Reference: the supplement of paper PMC7335073
Whole data set: some 4,100 sequences, median “relative CpG methylation activity (normalised to average over all NNNCGNNN flanks)” near 0.87, cut for the highest 2% near 2.4. This is one part of the list.

What follows are sequences tested against DNMT3A catalytic domain (mouse) (UniProt O88508) (assay: relative CpG methylation activity (normalised to average over all NNNCGNNN flanks) (relative (1 = mean)); higher = more methylation of the central CpG). Conditions: system: in vitro, murine catalytic domain; CpG state: hemimethylated substrate pool; residues: 608-908.
In short: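 Murine DNMT3A or DNMT3B catalytic domain methylated pooled dsDNA substrates, each carrying a central CpG within 10 random flanking nucleotides, with 0.8 mM S-adenosyl-L-methionine in HEPES pH 7.5 buffer at 37 °C for 60 min. Proteinase K treatment, BsaI-HFv2 digestion, hairpin ligation, bisulfite conversion and two-step PCR preceded Illumina sequencing. Relative methylation activity is the average methylation of a flanking context divided by the mean across all contexts, where a context spans three bases on each side, and every experiment was repeated twice independently.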

Sequence | relative CpG methylation activity
CATCGTAC | 0.536
TATCGGCG | 0.49
AGTCGACC | 0.328
TATCGCCC | 1.77
GCACGCAG | 0.978
GTTCGACA | 0.963
TCTCGCTT | 2.09
AGGCGCGG | 0.461
TGGCGGAC | 0.592
TTACGCTC | 2.74
CATCGCTG | 0.848
AGGCGTCT | 1.04
CCACGTTC | 1.24
TCACGCCA | 1.78
CATCGTTT | 0.474
CTCCGTAT | 1.01
TACCGTCA | 1.45
TGGCGTTA | 0.37
GTCCGTGT | 0.376
GGCCGTTT | 0.267
ATCCGTCC | 2.61
TACCGGCC | 0.938
ACGCGGGT | 0.542
TTTCGCTC | 2.02
ACGCGCGG | 0.42

Sequence | relative CpG methylation activity
CGACGGAT | 0.66
CGTCGGTA | 0.511
GTACGTGG | 0.872
TCGCGAAG | 0.36
CCGCGTTA | 0.814
ACTCGCTC | 1.79
TTCCGAAG | 1.45
GGCCGCCA | 1.4
CGTCGGAA | 0.698
CTCCGAAA | 1.63
TCACGCCG | 2.08
AGTCGGTA | 0.57
GTGCGCCC | 2.22
GACCGCTG | 1.2
TTTCGGTG | 0.682
GCGCGCGG | 0.181
ATACGATT | 1.36
GGTCGTTC | 0.368
GACCGTTA | 0.872
CATCGCAC | 1.1
CTGCGGGG | 0.732
TCCCGCAA | 0.962
TGTCGCAC | 0.888
AAGCGCAT | 0.582
CCTCGAGA | 0.73

Sequence | relative CpG methylation activity
ACACGTAG | 0.863
GCACGCAC | 1.22
TCACGCGA | 0.929
TCTCGGCA | 0.913
CGGCGTTC | 0.663
CCACGAGT | 1.26
CGCCGGGA | 0.437
ACGCGCAT | 1.07
GTACGAAC | 1.99
CACCGAGT | 0.933
TCCCGAAT | 0.738
ATTCGAAC | 1.19
TCTCGCTC | 1.84
ACGCGAAA | 0.833
TTGCGGCT | 1.72
GCCCGTGG | 0.141
TAACGAGT | 0.643
GCACGCTA | 1.64
TCACGGCA | 1.27
CCGCGATC | 0.985
CGACGGGC | 0.798
GAACGTCG | 1.25
AATCGGGC | 0.318
TTACGCGC | 2.44
ACACGAGC | 1.54

Sequence | relative CpG methylation activity
TAGCGCTG | 0.34
CCTCGTAT | 0.651
ACTCGTTT | 0.982
AAGCGTTG | 0.206
TCTCGAAC | 1.13
CAGCGTAG | 0.246
CTCCGGTC | 1.8
CATCGAGC | 0.882
TCACGGTA | 1.29
CGGCGCGC | 0.516
CTTCGGCT | 0.976
AGACGGTC | 1.15
ATACGTTT | 1.52
ATGCGCGG | 0.425
CAACGTGA | 0.375
CGTCGTAT | 0.388
CCGCGCCG | 1.13
ACACGAGA | 1.43
TTACGCCA | 2.33
GCACGTCC | 1.91
ACCCGGGC | 0.801
GGCCGTAG | 0.263
GAGCGTCA | 1.14
GAGCGAAC | 1.06
AGCCGAGC | 1.26

Sequence | relative CpG methylation activity
TGTCGAGA | 0.637
TGGCGCAA | 0.281
TAACGGTG | 0.512
AGTCGACG | 0.282
GTTCGGAT | 0.575
GGCCGACA | 0.948
CCTCGCGG | 0.283
CATCGCGG | 0.315
TCGCGCTC | 1.88
ATACGTTG | 1.23
CGGCGGCA | 0.896
TATCGTAC | 0.576
AACCGCTA | 1.29
TTGCGTGA | 0.64
CCTCGTAA | 1.17
CGACGCAA | 0.699
TGTCGCCT | 1.47
ATTCGGTT | 0.706
CCGCGCGG | 0.577
CGCCGTAG | 0.323
CATCGAAT | 0.533
TCCCGCGA | 0.863
GCCCGCTA | 1.3
TCACGGTT | 0.763
TCTCGCTG | 1.57

Sequence | relative CpG methylation activity
GACCGTCA | 1.16
AGCCGTTT | 0.42
CCTCGAGC | 1.18
TTGCGTTT | 1.35
CAACGTTG | 0.316
TTGCGAGT | 1.34
TTTCGGAG | 0.481
AAGCGCAC | 0.756
TACCGATA | 0.709
ATGCGGGT | 0.741
GGTCGCGG | 0.102
GTTCGGGT | 0.638
GTACGGTC | 1.65
ACGCGAAG | 0.553
CTGCGCTG | 1.56
TTTCGTCT | 1.99
CCTCGACG | 0.719
CAGCGGTA | 0.346
TATCGAAC | 0.633
TGGCGATC | 0.882
ATACGAAA | 2.06
GTGCGTAA | 1.42
CTTCGCAC | 1.84
TCGCGTAG | 0.412
GACCGCCA | 1.34

Sequence | relative CpG methylation activity
TAACGCTA | 0.705
GTTCGAGC | 1.09
CCGCGCAA | 1.17
CTACGAGC | 2.44
GATCGAGT | 0.285
CGACGCTC | 1.38
ATACGCAG | 1.52
TGGCGGGA | 0.3
ATTCGTTC | 1.08
CTCCGAGA | 1.34
CAGCGGAT | 0.29
GCACGGAC | 1.33
TCACGATT | 0.819
ATACGCCC | 2.85
ATGCGGTA | 1.15
CAGCGGTC | 0.48
GCCCGTAT | 0.701
CGACGCTG | 0.919
TGCCGTTT | 0.636
CGTCGAGT | 0.421
AGCCGGTG | 0.269
TTTCGGGG | 0.303
CGTCGAAC | 0.591
TTGCGCCG | 1.96
AAGCGTGA | 0.158

Sequence | relative CpG methylation activity
CCTCGACC | 1.37
GAGCGTCG | 0.833
ACGCGTAT | 0.711
TATCGATA | 0.599
GATCGAGC | 0.679
AACCGTGT | 0.399
CCGCGTAA | 1.18
ATGCGCTA | 1.77
GGCCGATC | 1.24
TTACGGAA | 1.89
CTACGGCT | 2.07
CTACGCAT | 1.97
AAACGTTA | 0.554
GACCGAAG | 0.897
CAGCGTTG | 0.138
AATCGGTG | 0.236
CGGCGACA | 0.647
ACCCGATG | 0.565
GCACGTGC | 0.642
CACCGCAT | 0.731
TTCCGCGC | 2.03
ATACGTCT | 2.22
GCCCGACC | 1.64
CTGCGTTG | 0.708
CGGCGCCC | 1.28

Sequence | relative CpG methylation activity
TTTCGGTC | 1.6
GACCGGGG | 0.227
CCACGTAG | 0.821
GCGCGTCC | 1.22
TGTCGTGC | 0.188
CAGCGGCC | 0.844
CACCGTGT | 0.273
AGCCGTAG | 0.455
GGCCGGCA | 0.941
CCACGACG | 1.18
CTTCGTTA | 0.946
GTACGGAG | 0.944
CAGCGCCA | 0.766
ATTCGCCG | 1.43
GAACGCCC | 1.6
GACCGTAA | 1.06
AGACGGAC | 1.05
GGCCGGAA | 0.714
ATTCGGGT | 0.342
GAACGTGG | 0.282
GTTCGGAA | 1.19
CGTCGTTG | 0.217
TTACGGTC | 2.21
GTTCGACT | 0.876
GTGCGACC | 1.61

Sequence | relative CpG methylation activity
TACCGCAC | 0.956
GGACGTTT | 0.479
CTCCGTTT | 1.55
GGACGTAC | 0.683
CGACGGCG | 0.591
CAACGAGC | 1.17
AATCGTGC | 0.123
TGACGACT | 0.687
CCTCGGGC | 1.18
AGGCGCTC | 1.58
ATACGACA | 1.85
GATCGGTT | 0.495
GAACGCCA | 1.01
ACCCGGTA | 0.917
CTTCGGAG | 0.254
TCTCGGAA | 0.868
ATTCGGAC | 1.05
CAACGCTA | 0.826
CATCGACT | 0.6
CGACGGTA | 0.633
ATTCGGTA | 0.466
TCACGCTA | 1.56
TGTCGCGA | 0.253
GACCGTGA | 0.433
ATGCGCTT | 2.2

Sequence | relative CpG methylation activity
CTCCGTCA | 1.79
GCCCGCTC | 1.99
ATCCGTCT | 2.05
TCACGGCT | 1.48
TACCGTAC | 0.485
CGACGAAT | 0.569
GAGCGTAA | 0.71
CACCGGGA | 0.737
TAACGCGC | 1.05
TTGCGTTG | 1.32
AATCGTGA | 0.199
CGGCGACG | 0.593
GCCCGCGC | 0.97
AATCGTCA | 0.734
GCACGCGG | 0.576
TATCGAGG | 0.25
TACCGTTC | 0.759
AGACGCTG | 1.09
GAGCGAGG | 0.403
CATCGCAG | 0.319
CTCCGCGT | 1.98
GCCCGAAA | 1.39
TGTCGGCC | 0.9
TTACGCAT | 2.29
GGCCGAGG | 0.41

Sequence | relative CpG methylation activity
TACCGTGA | 0.609
GGCCGCAG | 0.598
GTACGCAC | 1.87
GCTCGATT | 0.804
TGACGGCA | 0.813
TTACGCGA | 1.73
CACCGGTA | 0.756
CCTCGTAG | 0.669
GGACGCTT | 1.1
GCCCGGCA | 1.35
GCTCGCGC | 1.47
TGACGGCC | 1.1
ATACGTCA | 2.47
TATCGCCT | 1.86
GCACGATT | 1.02
ATTCGTTG | 0.368
CACCGGTT | 0.586
AAACGGGC | 0.976
ATCCGCAA | 1.6
CCCCGGCG | 1.03
ACCCGCTG | 1.46
CTCCGACC | 2.21
TATCGCGC | 0.611
ATTCGGAG | 0.438
TAGCGGGC | 0.438

Sequence | relative CpG methylation activity
TGCCGGTA | 0.455
TGGCGAGG | 0.323
TGCCGGTT | 0.585
CGGCGGAC | 0.652
GCTCGCTT | 1.97
ACACGCTT | 2.37
GTGCGAAG | 0.806
AGCCGGTC | 0.888
TGCCGGAA | 0.858
ATCCGGAG | 0.678
CGGCGAAA | 0.645
CGTCGGAT | 0.721
ATTCGATC | 1.16
TGGCGTTC | 0.5
AGCCGGGC | 0.657
TATCGAAT | 0.301
TTACGCAG | 1.39
ATCCGAGC | 1.96
CCACGAAG | 0.566
GTTCGGGA | 0.463
TAGCGGCC | 1.02
CAACGATA | 0.653
ACCCGCAA | 1.35
CTGCGCAG | 0.583
TTTCGTTC | 1.16

Sequence | relative CpG methylation activity
CTTCGAAA | 1.03
CGTCGCGG | 0.167
TTTCGAGT | 0.662
CTTCGATC | 1.22
TATCGGCC | 1.04
AAGCGTTT | 0.441
CGTCGCAC | 0.873
GAGCGTAT | 0.397
ACCCGGGG | 0.682
GGCCGCAT | 0.898
GCTCGACA | 1.04
ACACGTGG | 0.404
GGACGGGA | 0.592
TCGCGGTC | 0.714
ACGCGGTG | 0.893
TTCCGTCC | 2.26
CTACGGGG | 1.1
GCTCGTTG | 0.301
CAGCGATT | 0.565
